Paper PMC4336329 (PLoS ONE, 2015)
Hit rate of the full screen: of about 310,000 compounds, about 2,200 (0.71%) showed an effect of 50% or more. Effects have a minus sign here. Some of the results follow.

Target: human ether-à-go-go-related gene (hERG) potassium channel (human, UniProt Q12809)
Test: primary screen, population patch clamp on CHO cells stably expressing hERG

Chain of human ether-à-go-go-related gene (hERG) potassium channel (Q12809 whole entry, looked up): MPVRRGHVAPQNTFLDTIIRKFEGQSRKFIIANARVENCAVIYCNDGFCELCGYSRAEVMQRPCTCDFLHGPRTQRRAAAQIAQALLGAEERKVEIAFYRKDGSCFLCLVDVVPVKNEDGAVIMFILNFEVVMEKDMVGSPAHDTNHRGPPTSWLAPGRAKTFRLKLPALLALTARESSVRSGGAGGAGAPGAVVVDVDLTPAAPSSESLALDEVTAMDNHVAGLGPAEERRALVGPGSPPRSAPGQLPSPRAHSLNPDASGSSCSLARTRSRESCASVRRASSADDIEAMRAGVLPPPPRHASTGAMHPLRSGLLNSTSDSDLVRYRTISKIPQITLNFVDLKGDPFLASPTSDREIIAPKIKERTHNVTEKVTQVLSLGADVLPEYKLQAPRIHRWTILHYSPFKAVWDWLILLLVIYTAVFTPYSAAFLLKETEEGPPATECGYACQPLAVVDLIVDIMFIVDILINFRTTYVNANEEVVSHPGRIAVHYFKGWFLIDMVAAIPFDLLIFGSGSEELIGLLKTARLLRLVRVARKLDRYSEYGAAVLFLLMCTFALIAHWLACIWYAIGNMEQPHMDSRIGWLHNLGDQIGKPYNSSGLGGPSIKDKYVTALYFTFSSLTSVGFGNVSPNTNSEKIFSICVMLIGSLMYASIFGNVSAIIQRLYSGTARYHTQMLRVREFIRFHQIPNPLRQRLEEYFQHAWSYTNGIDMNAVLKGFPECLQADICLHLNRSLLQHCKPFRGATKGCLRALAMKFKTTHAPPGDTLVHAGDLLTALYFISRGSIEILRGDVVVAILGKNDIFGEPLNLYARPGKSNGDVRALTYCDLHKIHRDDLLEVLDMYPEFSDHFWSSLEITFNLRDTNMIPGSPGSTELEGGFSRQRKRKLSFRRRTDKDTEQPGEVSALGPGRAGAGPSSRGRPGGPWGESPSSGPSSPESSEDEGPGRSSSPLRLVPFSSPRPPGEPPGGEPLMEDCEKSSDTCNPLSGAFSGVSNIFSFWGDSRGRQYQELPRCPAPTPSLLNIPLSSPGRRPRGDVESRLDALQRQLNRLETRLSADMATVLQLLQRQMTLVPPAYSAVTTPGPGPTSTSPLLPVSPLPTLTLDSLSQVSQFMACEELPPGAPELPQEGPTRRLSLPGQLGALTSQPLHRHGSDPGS

Compound	hERG current change (%, negative = inhibition) at 1uM
CN1CC(C(=O)c2ccccc2)C(C(=O)c2ccccc2)C1 (centres unmarked)	0.868%
COC(=O)c1cc(NC(=O)c2cccc([N+](=O)[O-])c2C)ccc1Cl	-5.92%
CS(=O)(=O)N1CCN(c2ccc(NC(=O)CSc3ccc(Cl)cc3)cc2)CC1	6.23%
NC(=O)c1ccsc1NC(=O)c1cc(=O)c2ccccc2o1	0.155%
C/C=C/C=C/[C@H]1Cc2cc(O)cc(O)c2O1	8.01%
O=C(N/N=C/c1cccnc1)c1cc(C2CC2)nc2ccccc12	14.7%
O=C(NC1CCCCCCC1)c1ccccc1-c1ccccc1	-0.961%
C[C@@H]1CN=C2N(CCNC(=O)CCC3CCCCC3)[C@H](Cc3ccc(O)cc3)CN21	7.9%
O=[n+]1cc(-c2ccc(Cl)cc2)n([O-])c2c1CCC2	14.8%
O=C(CCNC(=O)C1CCN(S(=O)(=O)c2ccc(F)cc2)CC1)NCc1ccncc1	7.8%
CCCOc1ccc(C2C(C(=O)c3ccc(C)o3)=C(O)C(=O)N2CCN2CCOCC2)cc1OC (centres unmarked)	10.1%
CC(=O)N1N=C(c2cccc(NS(C)(=O)=O)c2)CC1c1cccs1 (centres unmarked)	-3.53%
Cc1sc2ncn(CC(=O)NCCCC(=O)N3CCN(c4ccccc4F)CC3)c(=O)c2c1C	10.4%
Cc1nc(-c2cnn(-c3ccccc3)c2)c2cc(C)oc2n1	10.3%
CN1CCCc2cc(C=O)ccc21	16%
CC(C)[C@@H](N)C(=O)N/N=C/c1ccc2nccnc2c1.Cl	13.5%
CCCCN(C(=O)C1CCN(C(=O)c2ccccc2C)CC1)c1c(N)n(CCCC)c(=O)[nH]c1=O	13%
COc1ccc(C2=NN(Cc3ccccc3)C3C(=O)NC(=O)C23)cc1 (centres unmarked)	8.42%
CCCC(=O)O[C@]1(C(=O)COC(C)=O)CC[C@H]2[C@@H]3C[C@H](F)C4=CC(=O)C=C[C@]4(C)[C@@]3(F)[C@@H](O)C[C@@]21C	9.48%
CCN(CC)S(=O)(=O)c1cccc(C(=O)NC(C(=O)Nc2nnc(C3CC3)s2)C(C)C)c1 (centres unmarked)	10.1%
c1coc(CNC2C3CC4CC(C3)CC2C4)c1 (centres unmarked)	10.6%
COC(=O)c1sc2ncccc2c1OCc1ccccc1Cl	-14.8%
CC(=C1C(=O)c2ccccc2C1=O)N1CCN(CCN=Cc2c(O)n(C)c(=O)n(C)c2=O)CC1	9.9%

Compound	hERG current change (%, negative = inhibition) at 1uM
Oc1ccccc1/C=N/[n+]1ccccc1.[I-]	14.5%
CCOC(=O)c1ccc(NC(=S)N2CCN(C(=O)C3CCCO3)CC2)cc1 (centres unmarked)	13.8%
COCCNC(=O)C(OC(=O)c1nsc(Cl)c1Cl)C(C)C (centres unmarked)	13.1%
Cn1c(SCC(=O)NCC2CCCO2)nnc1-c1cccc(NC(=O)c2ccccc2F)c1 (centres unmarked)	14.4%
CCCc1ncc(C(O)c2cccc(OC)c2OC)n1C (centres unmarked)	0.936%
Cc1cc(NC(=O)CSc2c(C)[nH]c3ccccc23)no1	17.3%
CC1CN(Cc2ccccc2)C(C)CC1O (centres unmarked)	-4.89%
COC(=O)CN1C(C)=Nc2ccc(C)cc2C1c1ccccc1 (centres unmarked)	-8.92%
CC(C)(C)c1[nH]nc2c1C(c1cccnc1)C(C#N)=C(N)O2 (centres unmarked)	11.7%
Cc1ccc(C(=O)NNC(=O)c2ccc(NS(=O)(=O)c3cccs3)cc2)o1	-11.2%
CCn1cc([N+](=O)[O-])c(C(=O)Nc2nc(-c3ccc(C)cc3)c(C)s2)n1	1.17%
CCNC(=S)N/N=C/c1c(Cl)cccc1Cl	3.85%
CC(=O)N(Cc1ccccc1)c1ncc2c(n1)c(=O)c(C#N)c1ccccn12	4%
O=C(CCn1c(=S)oc2ccccc21)Nc1ccc2c(c1)OCCO2	8.3%
CC(=O)c1cccc(NC(=O)c2ccccc2N(C)S(=O)(=O)c2ccc(C)cc2)c1	4.31%
CCN(CC)S(=O)(=O)c1ccc(Cl)c(NC(=O)CSc2nnc(-c3cccs3)o2)c1	5.51%
CC(C)c1ccc2[nH]c(O)c(N=NC(=O)c3cccc(S(=O)(=O)Nc4ccccc4Cl)c3)c2c1	2.57%
O=C(c1nc2ccc(Cl)cn2c1CN1CCC[C@H]1CO)N1CCCCCCC1	10.9%
O=C1/C(=C/c2cccs2)SC(=S)N1c1ccccc1	16.9%
CN1CCN(c2ccc([N+](=O)[O-])c(SCCO)c2)CC1	-14.6%
O=CN1CCC(=O)N(Cc2ccccc2)c2ccccc21	-5.78%
CCN(CC(=O)Nc1ccc(NC(C)=O)cc1)C(=O)/C=C/c1cn(-c2ccccc2)nc1-c1ccc(C)cc1	16.1%
COc1ccc(C/C(C)=N/NC(=S)Nc2ccc(Cl)cc2)cc1	17.2%

Compound	hERG current change (%, negative = inhibition) at 1uM
N#CCCN1CCN(C2=NC(=O)/C(=C\c3cccs3)S2)CC1	-12.5%
CN1CCN(C(=O)C23CCC(C)(c4nc5ccccc5nc42)C3(C)C)CC1 (centres unmarked)	-12.1%
CCC1CCc2sc(C(=O)N(C)CC(=O)Nc3ccc(N4CCOCC4)cc3)cc2C1 (centres unmarked)	19.2%
c1ccc2[nH]c(Cn3nnc4ccccc43)nc2c1	6.49%
O=C(NCc1ccco1)C(=O)c1c[nH]c2ccccc12	12.7%
CC1CN(S(=O)(=O)c2ccc(C(=O)Nc3nnc(-c4ccco4)o3)cc2)CC(C)O1 (centres unmarked)	13.6%
Cc1cc(Cl)cc(Cl)c1CNc1c([N+](=O)[O-])c(=O)oc2ccccc12	7.59%
CCOC(=O)c1c(C)[nH]c(C)c1S(=O)(=O)N(C)CC(=O)Nc1cccc(C)n1	2.99%
Cc1ccc(NC(=O)c2ccc(S(=O)(=O)NCc3cccnc3)cc2)c(C)c1	13.6%
O=C1CCC(=O)N1c1ccccc1OS(=O)(=O)c1ccccc1	26.1%
CC(C)COc1ccc(C(=O)N/C(=C\c2cccc([N+](=O)[O-])c2)C(=O)O)cc1	11.4%
CN(C)c1ccc(C=C(C#N)C#N)cc1	7.56%
Nc1cc(OC(=O)c2c(F)cccc2Cl)nn1S(=O)(=O)c1ccccc1	7.34%
CC1CC(OC(=O)c2ccccc2)CC(C)N1C.Cl (centres unmarked)	2.43%
COc1ccccc1NC(=O)OCC#CCOC(=O)Nc1ccccc1OC	6.61%
Oc1ccc(N=C/C=C/c2cccc(Br)c2)cc1-c1nc2ccccc2s1	13.4%
O=C(Nc1ccc(Cl)c(S(=O)(=O)N2CCOCC2)c1)c1ccc(OCC2CCCO2)cc1 (centres unmarked)	4.26%
O=C1CCC(C(=O)OCC(=O)C23CC4CC(CC(C4)C2)C3)N1 (centres unmarked)	6.35%
Cc1ccc(OCC(=O)OCc2nc3scc(-c4ccccc4)c3c(=O)[nH]2)cc1C	9.79%
Cn1cc(C(=O)N/N=C/c2cccc(O)c2)ccc1=O	14.4%
O=C(NNC(=O)c1cccc(-n2cnnn2)c1)c1ccccc1	18.7%
Cl.Nc1cccc(Nc2ncnc3ccccc23)c1	15.6%
CC(=O)NC1C(=O)Nc2c1cccc2C(F)(F)F (centres unmarked)	14.3%

Compound	hERG current change (%, negative = inhibition) at 1uM
CCOc1ccc(NC2CCCCC2NS(=O)(=O)c2ccccc2)cc1 (centres unmarked)	8.2%
COc1ccc(NC(=O)CCN2C(=O)c3ccccc3C2=O)c(OC)c1	11.1%
Clc1cnc(Nc2cccnc2)c(Cl)c1	12.9%
Cc1cc(C(=O)O)cc(Br)c1N	5.4%
CCCn1c(NC(=O)c2ccc(Br)cc2)nc2ccccc21	4.48%
CN(C)CC1CSCCC1(O)c1ccccc1Cl.Cl (centres unmarked)	6.19%
CCN(CC)S(=O)(=O)c1ccc2c(c1)c(=O)c(C(=O)N1CCOCC1)cn2C	1.12%
Cc1ccc(CN(C(=O)c2c(F)cccc2F)C2CC(C)(C)NC(C)(C)C2)o1.Cl	7.33%
COc1cccc(/C=N/NC(=O)CSc2ccccc2C)c1O	-6.07%
Cc1ccc2c(C(=O)CN3CCN(C(=O)c4ccco4)CC3)c(C)[nH]c2c1	0.527%
CCN(CC)CCOC(=O)c1ccc(N=Cc2c(O)[nH]c(=O)[nH]c2=O)cc1	7.64%
Cc1ccc(S(=O)(=O)NC2CCCCC2)cc1	11.3%
Cc1nc2nc(-c3ccccc3)[nH]n2c(=O)c1C	5.03%
CCS(=O)(=O)N1CCC(C(=O)NCCCN2CCCC2)CC1	16.5%
COc1cc(/C=C/C(=O)OCC(=O)N2CCCC2)ccc1OCC#N	-0.56%
COCCn1c(SCCCC(=O)c2ccc(Br)cc2)nnc1-c1ccncc1	-38%
CCCOCCOC(=O)c1[nH]c2c(c1C)C(=O)CC(c1cc(OC)ccc1OC)C2 (centres unmarked)	7.12%
CCN(CC)C(=O)Cn1cc(S(=O)(=O)CC(=O)Nc2ccc3c(c2)OCCO3)c2ccccc21	0.677%
CC1CC2=C(C(=O)O1)C(C)Nc1ccccc1N2 (centres unmarked)	8.27%
Cc1ccc(S(=O)(=O)/N=C(/NC(=S)Nc2cccc(C)c2)c2ccccc2)cc1	10.1%
